# PubChem BioAssay AID1030 (National Center for Advancing Translational Sciences (NCATS), 2008)
# Screen size: about 220,000 compounds; about 16,000 (7.3%) were called active. The inconclusive results got no clear call from the source; some entries with a clear call stand among them for comparison. The call rests on the fitted dose curve; in most records, active means well fitted inhibition curve with a large enough effect (not every such curve was filed as active); inconclusive means small, poorly fitted or top-dose-only effect, or another doubt; inactive means no such curve, though single readings can be large or run the other way. Potencies of inconclusive entries are left out as doubtful fits.
# Target: Aldehyde dehydrogenase 1A1 (Homo sapiens) (UniProt P00352)
# Chain of UniProt P00352 (P00352 whole entry, looked up): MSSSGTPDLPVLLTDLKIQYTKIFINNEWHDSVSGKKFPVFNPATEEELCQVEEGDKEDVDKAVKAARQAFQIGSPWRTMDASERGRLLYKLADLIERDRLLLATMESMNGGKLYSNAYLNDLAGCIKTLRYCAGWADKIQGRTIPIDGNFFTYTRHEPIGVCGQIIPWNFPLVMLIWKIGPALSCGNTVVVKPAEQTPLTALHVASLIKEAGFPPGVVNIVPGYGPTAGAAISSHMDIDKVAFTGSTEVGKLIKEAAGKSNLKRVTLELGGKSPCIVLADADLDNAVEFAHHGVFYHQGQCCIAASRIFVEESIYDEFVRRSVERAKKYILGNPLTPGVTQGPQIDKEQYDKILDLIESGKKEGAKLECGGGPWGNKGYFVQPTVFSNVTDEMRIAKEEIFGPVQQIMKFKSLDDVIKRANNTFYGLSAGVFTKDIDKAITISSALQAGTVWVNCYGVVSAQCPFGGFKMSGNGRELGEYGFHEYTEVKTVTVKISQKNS
# Test: qHTS Assay for Inhibitors of Aldehyde Dehydrogenase 1 (ALDH1A1);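 on activity, negative = inhibition: plate controls were no enzyme wells and a reference inhibitor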
# Conditions: Purified ALDH1A1, NADH fluorescence, propionaldehyde substrate; series mostly up to 75.3 µM; activity, negative = inhibition: at the top concentration
# Potency means the concentration at half of the fitted maximal effect; tags describe the fitted curve by direction and shape.
SMILES,Potency,"activity, negative = inhibition"
CCN(c1ccc(NC(=O)CN2C(=O)NC3(CCOc4ccccc43)C2=O)cc1)C(C)C (stereo unspecified),"inconclusive [inhibitor, single point]",–
CC(C)(C)NC(=O)CCN(/N=C/c1ccc([N+](=O)[O-])o1)C1=NS(=O)(=O)c2ccccc21,–,inactive: 7.22%
CCC(=O)Nc1ccc(-c2nc3ccccc3c(=O)o2)cc1,"inconclusive [inhibitor, single point]",–
COc1ccc(CC(=O)Nc2ccc(OC)nc2)cc1,–,inactive: 13%
CC(C)c1nnc(NC(=O)c2cnccn2)s1,"inconclusive [inhibitor, single point]",–
COc1ccc(-c2nnc(CSc3nnc(-c4ccncc4)n3C3CCCCC3)o2)cc1OC,–,inactive: -3.57%
Cc1ccc(S(=O)(=O)N2CCN(c3cnn(-c4ccccc4)c(=O)c3Cl)CC2)cc1,"inconclusive [inhibitor, single point]",–
Cc1ccc(Sc2nc([N+](=O)[O-])nn2C)cc1,–,inactive: 17.1%
Cc1ccccc1-c1ccc(Nc2ccc(C(=O)N3CCOCC3)cc2)nn1,"inconclusive [inhibitor, partial curve, poor fit]",–
CCOC(=O)C1CCN(c2ncnc3c2cnn3-c2ccc(OC)cc2)CC1,"inconclusive [inhibitor, single point]",–
Cc1nc2c(C(=O)N3CCOCC3)cnn2c(C)c1Cc1ccc(Cl)cc1,"inconclusive [inhibitor, single point]",–
Cc1ccc(NC(=O)N(CCCN2CCOCC2)Cc2cccs2)cc1C,"inconclusive [inhibitor, partial curve]",–
CCCCC(=O)NC(=S)NNC(=O)CC#N,active: 22.4 µM,–
O=C(CSc1nnnn1CCCO)Nc1ccc2c(c1)OCO2,"inconclusive [inhibitor, single point]",–
O=C1C2C3C=CC(C3)C2C(=O)N1CNc1ccc(O)cc1 (stereo unspecified),"inconclusive [inhibitor, single point]",–
CCOC(=O)C1CCN(C(=O)CSc2n[nH]c(=O)[nH]c2=O)CC1,–,inactive: -1.73%
Cc1cc(NC(=S)Nc2cccnc2)ccc1Br,active: 22.4 µM,–
CCOc1ccc(/C=C/C(O)=C2/C(=O)N(C)C3(C)CC2c2ccccc2O3)cc1OC (stereo unspecified),"inconclusive [inhibitor, single point]",–
CC(C)c1ccccc1-n1c(-c2cccnc2)n[nH]c1=S,–,inactive: -0.423%
CCCc1cc2c(=O)c(-c3cscn3)c(C(=O)OCC)oc2cc1O,"inconclusive [inhibitor, partial curve, poor fit]",–
O=C(Nc1ccccc1)C1=C[C@@H](c2ccc(Br)cc2)C[C@@H](OCCCCO)O1,active: 7.94 µM,–
O=C1c2ccccc2C(=O)N1CCCCSc1nc2ccccc2c(=O)n1CCCN1CCOCC1,"inconclusive [inhibitor, single point]",–
O=C(Nc1ccccc1)c1ccc(CSc2ccccn2)cc1,"inconclusive [inhibitor, single point]",–
Cc1occc1C(=O)NNC(=O)Nc1ccc(F)cc1F,"inconclusive [inhibitor, single point]",–

SMILES,Potency,"activity, negative = inhibition"
O=C(NCC1CCCO1)C(c1ccc(F)cc1)N(Cc1ccc2c(c1)OCO2)C(=O)c1ccc(CN2CCOCC2)o1 (stereo unspecified),–,inactive: 0.276%
O=C(CCCSc1nc2ccccc2s1)Nc1nccs1,active: 15.8 µM,–
Cc1cc(C(=O)CN2C(=O)c3ccccc3S2(=O)=O)c(C)n1-c1ccccc1,"inconclusive [inhibitor, single point]",–
COc1ccc(S(=O)(=O)Nc2ccc(F)c(Cl)c2)cc1OC,"inconclusive [inhibitor, partial curve]",–
Cc1nc(SCC(=O)Nc2ccc(OCc3ccccc3)cc2)n[nH]1,"inconclusive [inhibitor, single point]",–
CCOC(=O)CCC(NC(=O)c1cncc(O)c1)C(=O)OCC (stereo unspecified),"inconclusive [inhibitor, partial curve]",–
COc1cccc(/C=C/C(=O)Nc2ccccc2N2CCOCC2)c1,"inconclusive [inhibitor, partial curve]",–
CCN(CC)S(=O)(=O)c1ccc(Cl)c(C(=O)N2CCc3ccccc32)c1,"inconclusive [inhibitor, single point]",–
CCOc1cc(NC(=S)NCCCOC)c(OCC)cc1NC(=O)c1cccs1,"inconclusive [inhibitor, single point]",–
C=C(Br)Cn1c(CC(C)C)nc2ccccc21,–,inactive: 5.78%
O=c1c2ccccc2nc2n1CCCN2,"inconclusive [inhibitor, partial curve]",–
N#CC1=C(N2CCOCC2)/C(=C\c2ccccc2)CC1,"inconclusive [inhibitor, partial curve]",–
CCn1cc(C(=O)NCc2ccc3c(c2)OCO3)c(=O)c2cc(S(=O)(=O)N(C)C)ccc21,"inconclusive [inhibitor, single point]",–
C/C(=N\NC(=O)CC#N)c1ccc(Oc2ccccc2)cc1,–,inactive: 2.91%
Cc1sc2nc3n(c(=O)c2c1C)Cc1ccccc1-3,"inconclusive [inhibitor, partial curve]",–
CC(=O)Nc1ccc2nc(NS(=O)(=O)c3ccc(C)cc3)sc2c1,–,inactive: -0.702%
CC(=O)Oc1ccc(C(=O)O)cc1OC(C)=O,"inconclusive [inhibitor, single point]",–
COC(=O)CSc1nc(N)c(C#N)c(-c2ccc(O)cc2)c1C#N,"inconclusive [inhibitor, partial curve]",–
Cc1c(NC(=O)/C(=C/c2cccs2)c2cccs2)c(=O)n(-c2ccccc2)n1C,"inconclusive [inhibitor, single point]",–
CCOC(=O)C1=C(C)N[C@@]2(O)c3ccccc3C(=O)[C@@]12O,active: 31.6 µM,–
CC(=O)NC(NC(=S)Nc1ccc(N=Nc2ccccc2)cc1)C(Cl)(Cl)Cl (stereo unspecified),active: 12.6 µM,–
Cc1c(Cc2ccccc2)sc(/N=C/c2c(O)ccc3ccccc23)c1C(N)=O,"inconclusive [inhibitor, partial curve]",–
C/C(=N\Nc1ccc(C(F)(F)F)cn1)c1ccncc1,–,inactive: 27.7%
CCCNC(=O)c1ccccc1NC(=O)c1ccccc1SC,"inconclusive [inhibitor, partial curve]",–

SMILES,Potency,"activity, negative = inhibition"
Brc1ccc(-c2cn3c(n2)SCC3)cc1,–,inactive: 2.62%
CCOC(=O)c1c(-c2ccccc2)csc1NC(=O)CCN1C(=O)c2ccccc2C1=O,"inconclusive [inhibitor, partial curve]",–
O=C(O)c1cc(N/N=C/c2ccc3c(c2)OCCO3)ccc1Cl,"inconclusive [inhibitor, single point]",–
O=C(Cc1ccccc1)NCCSCc1ccc(Cl)cc1,"inconclusive [inhibitor, single point]",–
CCn1cc(C(=O)NCc2ccco2)c(=O)c2cc(S(=O)(=O)N3CCCCCC3)ccc21,active: 8.91 µM,–
COc1cc(/C=C2/SC(=O)N(Cc3ccccc3Cl)C2=O)ccc1OCc1ccncc1,active: 0.447 µM,–
COc1ccc2c(c1)CCN=C2Cc1ccc(OC)c(OC)c1,"inconclusive [inhibitor, single point]",–
Cc1ccc(NCC(=O)N/N=C\c2ccc[nH]2)cc1,"inconclusive [inhibitor, single point]",–
O=C(CSc1nc2ccccc2[nH]1)N1c2ccccc2Sc2ccccc21,"inconclusive [inhibitor, single point]",–
O=C(c1cc([N+](=O)[O-])cc([N+](=O)[O-])c1)N(Cc1nnc(-c2ccccc2Cl)o1)C1CC1,"inconclusive [inhibitor, single point]",–
O=C(Oc1ccc(N(Cc2cccs2)C2=NS(=O)(=O)c3ccccc32)cc1)c1ccc(Cl)cc1,active: 22.4 µM,–
O=C(/C=C/c1cccc([N+](=O)[O-])c1)NCCN1C(=O)S/C(=C\c2cccnc2)C1=O,"inconclusive [inhibitor, single point]",–
CC1=NN(c2nc(-c3ccc(F)cc3)cs2)C(=O)C1,–,inactive: 1.29%
COc1cc(C2CC(=O)N(CC(=O)NCc3ccco3)c3ccccc3S2)cc(OC)c1OC (stereo unspecified),"inconclusive [inhibitor, single point]",–
O=C(CCC1CCCCC1)NNC(=O)NC12CC3CC(CC(C3)C1)C2,"inconclusive [inhibitor, single point]",–
CCOCCCNC(=O)C(NC(=O)Cc1c[nH]c2ccccc12)c1ccccc1 (stereo unspecified),–,inactive: 0.209%
O=C(O)CCC(=O)c1ccc2c(c1)OCCCO2,"inconclusive [inhibitor, partial curve]",–
CCN(CCCNC(=O)C1CCN(S(=O)(=O)N2CCC3(CC2)OCCO3)CC1)c1ccccc1,"inconclusive [inhibitor, single point]",–
COc1ccc(C(=O)N(CCCO)Cc2cc3c(C)ccc(C)c3[nH]c2=O)cc1OC,"inconclusive [inhibitor, partial curve]",–
CCN1CCN(c2ccc(S(=O)(=O)N3CCCC3)cn2)CC1,–,inactive: 3.4%
CCCSc1nc(-n2ncc(C#N)c2N)c2c3c(sc2n1)CCC(C)C3 (stereo unspecified),active: 3.98 µM,–
Cn1c(SCC(=O)c2ccccc2)nnc1C1COc2ccccc2O1 (stereo unspecified),"inconclusive [inhibitor, partial curve]",–
O=C1SCC(c2ccccc2)=NN1Cc1ccccc1,"inconclusive [inhibitor, single point]",–
